{"source": "PubChem BioAssay AID485367", "about": "(National Center for Advancing Translational Sciences (NCATS), 2010)", "note": "About 560 (0.17%) of roughly 330,000 compounds were called active. Inconclusive means that the source gave no clear call. Such entries were picked first, then a sample of the others. Calls come from the whole dose curve; as a rule, active = well fitted inhibition curve with a large enough effect; inconclusive = small, poorly fitted or top-dose-only effect, or effect the other way; inactive = flat fitted curve, though single readings scatter. No potency is given beside an inconclusive call; the fits are too rough. Potency is the fitted concentration of half-maximal effect; tags give direction and shape of the fitted curve."}
{"target": "ATP-dependent 6-phosphofructokinase (Trypanosoma brucei brucei) (UniProt O15648)", "sequence (O15648 whole entry, looked up)": "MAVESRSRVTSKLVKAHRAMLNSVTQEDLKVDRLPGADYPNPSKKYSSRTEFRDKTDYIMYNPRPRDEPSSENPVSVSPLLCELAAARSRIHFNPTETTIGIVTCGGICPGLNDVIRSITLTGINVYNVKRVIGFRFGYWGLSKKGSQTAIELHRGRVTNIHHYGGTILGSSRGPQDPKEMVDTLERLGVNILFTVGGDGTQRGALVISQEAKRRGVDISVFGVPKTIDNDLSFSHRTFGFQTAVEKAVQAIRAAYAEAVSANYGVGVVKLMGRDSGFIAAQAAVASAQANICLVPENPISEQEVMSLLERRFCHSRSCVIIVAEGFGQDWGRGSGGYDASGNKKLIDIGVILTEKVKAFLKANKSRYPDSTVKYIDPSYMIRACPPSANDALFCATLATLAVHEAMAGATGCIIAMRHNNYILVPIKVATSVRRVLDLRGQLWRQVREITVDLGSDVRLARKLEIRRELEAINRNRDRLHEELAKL", "assay": "qHTS Assay to Find Inhibitors of T. brucei phosphofructokinase; note: nearly all actives have a fitted effect of over 60% in size;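 for activity, negative = inhibition: 0% = uninhibited 1x PFK enzyme wells and -100% = no-enzyme wells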", "conditions": "T. brucei PFK, ADP-Glo luminescence; activity, negative = inhibition: at 57.5 µM (top of the series)", "method_in_brief": "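Luminescent ADP detection (ADP-Glo, two-step: ATP depletion then ADP-to-ATP conversion for luciferase) reported PFK activity after 45 min room-temperature reaction of 1.25 nM enzyme with 0.5 mM F6P and 0.1 mM ATP at pH 8.0.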"}
{"compound": "O=C(CSc1nc2ccccc2[nH]1)Nc1nc(-c2cccc(Br)c2)cs1", "activity, negative = inhibition": "inactive: -5.76%"}
{"compound": "CCOC(=O)c1c(C2COc3ccccc3O2)csc1NC(=O)c1ccco1", "note": "(stereo unspecified)", "Potency": "inconclusive [falling, full curve]"}
{"compound": "CCOc1ccccc1-n1c(SCC(=O)Nc2ccccc2C(=O)O)nc2ccccc2c1=O", "activity, negative = inhibition": "inactive: -0.756%"}
{"compound": "CCc1c(C)sc(NC(=O)C2CCCCC2C(=O)O)c1C(N)=O", "note": "(stereo unspecified)", "Potency": "inconclusive [falling, single point]"}
{"compound": "O=C(Cn1c2ccccc2c(=O)c2ccccc21)N/N=C/c1cc([N+](=O)[O-])ccc1N1CCCCCC1", "activity, negative = inhibition": "inactive: 0.128%"}
{"compound": "N#C/C(=C\\c1ccc(OCc2ccc(Cl)cc2)cc1)C(=O)Nc1cccc(C(=O)O)c1", "activity, negative = inhibition": "inactive: -11.2%"}
{"compound": "CCOc1ccc(C(=O)Nc2cnn(Cc3ccc(Cl)c(Cl)c3)c2)cc1", "Potency": "inconclusive [falling, single point]"}
{"compound": "Cc1ccc(NC(=O)CN2C(=O)N/C(=C/c3cc(C)n(-c4cccc(C(=O)O)c4)c3C)C2=O)cc1", "Potency": "inconclusive [falling, single point]"}
{"compound": "CC(OC(=O)COc1ccc(Nc2ccccc2)cc1)C(=O)N(C)c1ccccc1", "note": "(stereo unspecified)", "activity, negative = inhibition": "inactive: -1.72%"}
{"compound": "COc1ccc(C2=CC(=O)C[C@H](c3ccc(Cl)cc3)C2)cc1", "activity, negative = inhibition": "inactive: 3.12%"}
{"compound": "COc1cc(-c2nnc(SCc3cc(=O)oc4cc(O)c(O)cc34)o2)cc(OC)c1OC", "Potency": "inconclusive [falling, full curve]"}
{"compound": "CC1(C)NC(=O)N(CCOc2cccc(Cl)c2Cl)C1=O", "Potency": "inconclusive [activator, partial curve, poor fit]"}
{"compound": "Cc1nnc(NC(=O)CSCc2cc(=O)c3ccccc3[nH]2)s1", "Potency": "inconclusive [falling, partial curve]"}
{"compound": "CC(C)c1ccc(NC(=O)CSc2nc3ccsc3c(=O)n2Cc2ccc(C(=O)O)cc2)cc1", "Potency": "inconclusive [falling, single point]"}
{"compound": "COc1ccc(/C=N/NC(=O)c2cccnc2)cc1COc1ccc([N+](=O)[O-])cc1", "activity, negative = inhibition": "inactive: -2.93%"}
{"compound": "O=C(NCCO)c1cc2cc(Cl)cc(Cl)c2oc1=O", "Potency": "inconclusive [falling, partial curve]"}
{"compound": "Cc1nc2c(nnn2Cc2ccccc2Cl)c(=O)[nH]1", "activity, negative = inhibition": "inactive: -1.2%"}
{"compound": "Nc1ccc(-c2ncc(-c3ccccc3)o2)cc1", "activity, negative = inhibition": "inactive: 1.04%"}
{"compound": "Cc1ccccc1NC(=S)Nc1cccc([N+](=O)[O-])c1", "Potency": "inconclusive [falling, single point]"}
{"compound": "O=C(O)c1ccc2c(c1)C(=O)N([C@@H](C(=O)O)C(c1ccccc1)c1ccccc1)C2=O", "Potency": "inconclusive [falling, single point]"}
{"compound": "CC(C)n1c(SCC(=O)Nc2nncs2)nnc1-c1ccco1", "Potency": "inconclusive [falling, single point]"}
{"compound": "O=C(COC(=O)/C=C/c1ccc(Br)o1)Nc1ccc2[nH]c(=O)[nH]c2c1", "Potency": "inconclusive [falling, full curve]"}
{"compound": "Cc1csc(=O)n1CC(=O)Nc1ccc(C(C)C)cc1", "activity, negative = inhibition": "inactive: -5.35%"}
{"compound": "CN(C)S(=O)(=O)c1cc(NC(=O)CN2CCN(c3ccccc3)CC2)ccc1Cl", "Potency": "inconclusive [activator, single point]"}
{"compound": "CNC(=O)c1[nH]cnc1C(=O)N[C@@H](C)C(=O)OCc1ccccc1", "Potency": "inconclusive [falling, single point]"}
{"compound": "COC(=O)c1ccc(-c2c(-c3ccccc3)ncc3cc(OC)c(OC)cc23)cc1", "Potency": "inconclusive [falling, single point]"}
{"compound": "O=S(=O)(c1ccccc1)N1CCSC1c1ccco1", "note": "(stereo unspecified)", "Potency": "inconclusive [falling, single point]"}
{"compound": "O=S1(=O)CCOC(CO)CN1Cc1ccc(Cl)c(Cl)c1", "note": "(stereo unspecified)", "Potency": "inconclusive [falling, partial curve]"}
{"compound": "COc1cc(OC)cc(-c2c(C#Cc3ccsc3)c3cc(-c4ccc(OC)c(F)c4)ccc3n2C)c1", "activity, negative = inhibition": "inactive: 1.28%"}
{"compound": "CC(C)(C)NC(=O)C(c1ccc(-c2ccccc2)cc1)N(C[C@H]1CC[C@@H]([C@@H]2CC[C@H](CO)O2)O1)C(=O)c1ccc(C(C)(C)C)cc1", "note": "(stereo partly specified)", "activity, negative = inhibition": "inactive: -1.59%"}
{"compound": "NN1C(=O)/C(=C2/Sc3ccccc3N2CCCS(=O)(=O)O)SC1=S", "Potency": "active: 30.1 µM"}
{"compound": "O=S(=O)(c1cccc(-c2cn3cccnc3n2)c1)N1CCOCC1", "activity, negative = inhibition": "inactive: -2.63%"}
{"compound": "CCOC(=O)c1c(P(=O)(N2CCOCC2)N2CCOCC2)noc1N", "activity, negative = inhibition": "inactive: 3.72%"}
{"compound": "Cc1ccccc1NCc1ccc(O)c2ncccc12", "activity, negative = inhibition": "inactive: -0.159%"}
{"compound": "Cc1ccc(S(=O)(=O)N(C(=O)c2ccncc2)c2ccc(OC(=O)c3ccncc3)c3ccccc23)cc1", "Potency": "active: 16.9 µM"}
{"compound": "COc1ccc(N=C2SC(C(N)=O)CC(=O)N2Cc2ccc3c(c2)OCO3)cc1", "note": "(stereo unspecified)", "Potency": "inconclusive [falling, partial curve]"}
{"compound": "CCOC(=O)/C(=C/C=C1\\Sc2ccccc2N1CC)C(C)=O", "Potency": "inconclusive [activator, single point]"}
{"compound": "CCn1c(N)c(C(=O)NCC2CCCO2)sc1=S", "note": "(stereo unspecified)", "Potency": "inconclusive [falling, full curve]"}
{"compound": "COCCN(C(=O)CSc1ccc2c(c1)OCCO2)c1c(N)n(CC(C)C)c(=O)[nH]c1=O", "Potency": "inconclusive [falling, single point]"}
{"compound": "CCc1c(C)sc(NC(=O)c2cccs2)c1C(N)=O", "Potency": "inconclusive [falling, full curve]"}
{"compound": "COc1ccc2oc(C(=O)NCC(c3ccco3)N(C)C)c(C)c2c1", "note": "(stereo unspecified)", "Potency": "inconclusive [falling, single point]"}
{"compound": "O=C(Cc1ccccc1)NCC(=O)Nc1cccc(Br)c1", "Potency": "inconclusive [falling, partial curve]"}
{"compound": "Cc1ccc(NC(=O)c2cc(N3C(=O)C=CC3=O)ccc2N2CCOCC2)cc1Cl", "Potency": "inconclusive [falling, single point]"}
{"compound": "O=C(O)CSc1nnnn1C1CCCCC1", "activity, negative = inhibition": "inactive: 0%"}
{"compound": "COc1cc(/C=C(\\C#N)c2nc3ccccc3s2)cc([N+](=O)[O-])c1O", "Potency": "inconclusive [activator, full curve]"}
{"compound": "CN(c1ccccc1)S(=O)(=O)c1cccc(C(=O)NCCc2ccc(O)c(O)c2)c1", "Potency": "inconclusive [falling, partial curve]"}
